{"source": "the supplement of paper PMC3334620", "note": "Whole data set: some 33,000 sequences, median “E-score (-0.5 to 0.5)” near -0.035, cut for the highest 2% near 0.34. The list shows a part of the results.", "data": [{"target": "T1, Mot3 (UniProt P54785)", "T1 sequence": "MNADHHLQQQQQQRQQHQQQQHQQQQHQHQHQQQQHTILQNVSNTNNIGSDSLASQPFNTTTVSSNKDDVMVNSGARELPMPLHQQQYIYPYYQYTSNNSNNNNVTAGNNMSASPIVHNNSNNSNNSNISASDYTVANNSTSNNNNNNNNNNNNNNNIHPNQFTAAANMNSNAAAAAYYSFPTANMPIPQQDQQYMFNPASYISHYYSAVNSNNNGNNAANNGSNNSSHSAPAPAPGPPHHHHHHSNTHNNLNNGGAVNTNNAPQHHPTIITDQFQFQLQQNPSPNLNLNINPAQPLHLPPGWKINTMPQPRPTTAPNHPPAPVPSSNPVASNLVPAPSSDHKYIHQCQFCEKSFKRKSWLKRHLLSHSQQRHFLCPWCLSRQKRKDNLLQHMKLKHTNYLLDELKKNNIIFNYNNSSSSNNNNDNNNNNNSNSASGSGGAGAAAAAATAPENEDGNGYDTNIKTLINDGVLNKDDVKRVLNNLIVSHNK", "assay": "PBM E-score (8-mer binding enrichment) (E-score (-0.5 to 0.5)); higher = stronger / more preferred TF binding; most listed sequences are background and not binding sites", "conditions": "protein concentration: 200 nM; construct: GST-full length", "method_in_brief": "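Bound GST-tagged yeast transcription factors, applied at about 100-200 nM to double-stranded universal all-10-mer Agilent arrays, were detected with fluorescent anti-GST. Scans were normalised with masliner. A modified Wilcoxon-Mann-Whitney statistic, the E-score, was assigned to each ungapped eight-base word pooled with its reverse complement by the Universal PBM Analysis Suite.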", "values": [{"sequence": "AACCTAGA", "PBM E-score": -0.0927}, {"sequence": "AAGCAACG", "PBM E-score": 0.0783}, {"sequence": "GTCTCTTA", "PBM E-score": 0.0107}, {"sequence": "CGCATTCA", "PBM E-score": 0.03}, {"sequence": "AATGCTAC", "PBM E-score": 0.0517}, {"sequence": "CTAGTGGA", "PBM E-score": -0.158}, {"sequence": "ACGAAACT", "PBM E-score": -0.0505}, {"sequence": "GCGCCCAC", "PBM E-score": -0.347}, {"sequence": "AGAGGGCA", "PBM E-score": 0.0326}, {"sequence": "ATAGCGAC", "PBM E-score": 0.086}, {"sequence": "ACATGTCT", "PBM E-score": 0.235}, {"sequence": "AAAGTGAG", "PBM E-score": -0.0909}, {"sequence": "CGCAGCGC", "PBM E-score": -0.103}, {"sequence": "ATTCGTCC", "PBM E-score": -0.0868}, {"sequence": "ATATACGA", "PBM E-score": 0.14}, {"sequence": "ATGATCAA", "PBM E-score": 0.0374}, {"sequence": "GGTCCTAC", "PBM E-score": -0.276}, {"sequence": "CCGGTTAC", "PBM E-score": 0.00099}, {"sequence": "ATCAACCA", "PBM E-score": -0.172}, {"sequence": "CCGAGCCG", "PBM E-score": -0.323}, {"sequence": "AGCGCTGA", "PBM E-score": -0.188}, {"sequence": "CATGGCAG", "PBM E-score": -0.0253}, {"sequence": "GCTGATCA", "PBM E-score": -0.241}, {"sequence": "TATTGAAA", "PBM E-score": 0.0575}, {"sequence": "ATTCTTGA", "PBM E-score": 0.0207}, {"sequence": "ATTGCCCG", "PBM E-score": -0.207}, {"sequence": "ACGGGTCG", "PBM E-score": -0.0828}, {"sequence": "ATATCACC", "PBM E-score": 0.0341}, {"sequence": "CGCGCCAA", "PBM E-score": -0.0132}, {"sequence": "TGAAGGAA", "PBM E-score": 0.434}, {"sequence": "CCGTTCTA", "PBM E-score": 0.17}, {"sequence": "CGCATCAG", "PBM E-score": -0.0383}, {"sequence": "CCGCAACA", "PBM E-score": 0.132}, {"sequence": "ACGAAGCT", "PBM E-score": -0.0365}, {"sequence": "AGAGCCGC", "PBM E-score": -0.261}, {"sequence": "ACATTGGA", "PBM E-score": -0.0925}, {"sequence": "ATGTAGCC", "PBM E-score": -0.0965}, {"sequence": "ATTTAATG", "PBM E-score": 0.166}, {"sequence": "CCAGCAAG", "PBM E-score": -0.162}, {"sequence": "GCCAACAA", "PBM E-score": -0.0223}, {"sequence": "GGAGGGGA", "PBM E-score": -0.285}, {"sequence": "TGCGGTAA", "PBM E-score": 0.00116}, {"sequence": "CCTATGCC", "PBM E-score": -0.0577}, {"sequence": "CACGGCCA", "PBM E-score": -0.152}, {"sequence": "CGGTCACA", "PBM E-score": -0.245}, {"sequence": "AATAGTGT", "PBM E-score": 0.026}, {"sequence": "ACAAAACG", "PBM E-score": 0.159}, {"sequence": "GAGGTAGC", "PBM E-score": -0.202}, {"sequence": "GACTAACA", "PBM E-score": 0.0937}, {"sequence": "CCTCTGTA", "PBM E-score": 0.108}, {"sequence": "AGCAGACC", "PBM E-score": -0.181}, {"sequence": "AAGTCGTG", "PBM E-score": -0.0266}, {"sequence": "ACCGGTCC", "PBM E-score": -0.214}, {"sequence": "CGTGCTGA", "PBM E-score": 0.0651}, {"sequence": "AGCCTTAC", "PBM E-score": -0.0126}, {"sequence": "TACCCCCA", "PBM E-score": -0.0647}, {"sequence": "CCGAGGGC", "PBM E-score": -0.22}, {"sequence": "GATCCTGA", "PBM E-score": -0.11}, {"sequence": "CAGCATCC", "PBM E-score": -0.162}, {"sequence": "GCCGGGAA", "PBM E-score": -0.195}, {"sequence": "AAACGACG", "PBM E-score": 0.193}, {"sequence": "AACCTAGG", "PBM E-score": 0.0596}, {"sequence": "CTGGAGGA", "PBM E-score": -0.0115}, {"sequence": "CTTGAATC", "PBM E-score": 0.0305}, {"sequence": "CCGACGAG", "PBM E-score": -0.0302}, {"sequence": "CGGGGCAG", "PBM E-score": -0.186}, {"sequence": "TCATAGCA", "PBM E-score": -0.00451}, {"sequence": "CACCCAAG", "PBM E-score": -0.117}, {"sequence": "GAGAACTA", "PBM E-score": 0.00221}, {"sequence": "CAAGATCC", "PBM E-score": -0.194}, {"sequence": "GTACAGAA", "PBM E-score": 0.141}, {"sequence": "CTCACGCC", "PBM E-score": -0.258}, {"sequence": "AACCCGCC", "PBM E-score": -0.129}, {"sequence": "GGGAGACC", "PBM E-score": -0.295}, {"sequence": "GTGATGTA", "PBM E-score": 0.296}, {"sequence": "GTCGCCCA", "PBM E-score": -0.253}, {"sequence": "ATATAGGG", "PBM E-score": -0.153}, {"sequence": "CACACTGA", "PBM E-score": -0.0501}, {"sequence": "ACACGTAA", "PBM E-score": 0.316}, {"sequence": "TGCCTTAA", "PBM E-score": 0.471}, {"sequence": "CTACTACC", "PBM E-score": 0.0323}, {"sequence": "GGTTAAAA", "PBM E-score": 0.194}, {"sequence": "GCAAGGCC", "PBM E-score": -0.0626}, {"sequence": "CGCTAACG", "PBM E-score": -0.0607}, {"sequence": "TTCTCCAA", "PBM E-score": -0.0743}, {"sequence": "AATTGTTC", "PBM E-score": 0.11}, {"sequence": "TAGTCTAA", "PBM E-score": -0.0848}, {"sequence": "CCGAGCGC", "PBM E-score": -0.18}, {"sequence": "ATATCCAA", "PBM E-score": 0.00577}, {"sequence": "CCTAAACA", "PBM E-score": 0.215}, {"sequence": "AGATGTGG", "PBM E-score": -0.0703}, {"sequence": "AGCATGAC", "PBM E-score": -0.12}, {"sequence": "CTGAGTCC", "PBM E-score": -0.149}, {"sequence": "CTTGTCAC", "PBM E-score": -0.197}]}]}
